# The other results are listed elsewhere or left out.
# Experiments:
# Test in all cases: glycan array binding signal (z-score within array); higher = stronger binding
# Conditions in all cases: glycan notation: IUPAC condensed, linker removed
# [1] = biological target: Neu5Ac(a2-6)Gal(b1-4)GlcNAc(b1-2)Man(a1-3)[GlcNAc(b1-4)][Neu5Ac(a2-6)Gal(b1-4)GlcNAc(b1-2)Man(a1-6)]Man(b1-4)GlcNAc(b1-4)GlcNAc
# How it was run: (§1)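 From the Consortium for Functional Glycomics database, 3228 arrays were curated, keeping only those whose protein sequence was available. Binding is given as a within-array Z-score averaged across arrays sharing a protein sequence and across linkers. Negative Z-scores can be read as non-binding.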
# [2] = biological target: Neu5Ac(a2-6)Gal(b1-4)GlcNAc(b1-2)Man(a1-3)[Man(a1-6)]Man(b1-4)GlcNAc(b1-4)GlcNAc
# How it was run: as §1
# [3] = biological target: Neu5Ac(a2-6)Gal(b1-4)GlcNAc(b1-2)Man(a1-3)[Neu5Ac(a2-3)Gal(b1-4)GlcNAc(b1-2)Man(a1-6)]Man(b1-4)GlcNAc(b1-4)GlcNAc
# How it was run: as §1
# [4] = biological target: Neu5Ac(a2-6)Gal(b1-4)GlcNAc(b1-2)Man(a1-3)[Neu5Ac(a2-6)Gal(b1-4)GlcNAc(b1-2)Man(a1-6)]Man(b1-4)GlcNAc(b1-4)GlcNAc
# How it was run: as §1
# [5] = biological target: Neu5Ac(a2-6)Gal(b1-4)GlcNAc(b1-2)Man(a1-3)[Neu5Ac(a2-6)Gal(b1-4)GlcNAc(b1-2)Man(a1-6)]Man(b1-4)GlcNAc(b1-4)[Fuc(a1-6)]GlcNAc
# How it was run: as §1
# [6] = biological target: Neu5Ac(a2-6)Gal(b1-4)GlcNAc(b1-2)Man(a1-6)Man(b1-4)GlcNAc(b1-4)GlcNAc
# How it was run: as §1
# [7] = biological target: Neu5Ac(a2-6)Gal(b1-4)GlcNAc(b1-2)Man(a1-6)[Gal(b1-4)GlcNAc(b1-2)Man(a1-3)]Man(b1-4)GlcNAc(b1-4)GlcNAc
# How it was run: as §1
# [8] = biological target: Neu5Ac(a2-6)Gal(b1-4)GlcNAc(b1-2)Man(a1-6)[GlcNAc(b1-2)Man(a1-3)]Man(b1-4)GlcNAc(b1-4)GlcNAc
# How it was run: as §1
# [9] = biological target: Neu5Ac(a2-6)Gal(b1-4)GlcNAc(b1-2)Man(a1-6)[Man(a1-3)]Man(b1-4)GlcNAc(b1-4)GlcNAc
# How it was run: as §1
# [10] = biological target: Neu5Ac(a2-6)Gal(b1-4)GlcNAc(b1-2)[Neu5Ac(a2-6)Gal(b1-4)GlcNAc(b1-4)]Man(a1-3)[GlcNAc(b1-4)][Neu5Ac(a2-6)Gal(b1-4)GlcNAc(b1-2)[Neu5Ac(a2-6)Gal(b1-4)GlcNAc(b1-6)]Man(a1-6)]Man(b1-4)GlcNAc(b1-4)GlcNAc
# How it was run: as §1
# [11] = biological target: Neu5Ac(a2-6)Gal(b1-4)GlcNAc(b1-2)[Neu5Ac(a2-6)Gal(b1-4)GlcNAc(b1-4)]Man(a1-3)[GlcNAc(b1-4)][Neu5Ac(a2-6)Gal(b1-4)GlcNAc(b1-4)Man(a1-6)]Man(b1-4)GlcNAc(b1-4)GlcNAc
# How it was run: as §1
# [12] = biological target: Neu5Ac(a2-6)Gal(b1-4)GlcNAc(b1-2)[Neu5Ac(a2-6)Gal(b1-4)GlcNAc(b1-6)]Man(a1-6)[Neu5Ac(a2-6)Gal(b1-4)GlcNAc(b1-2)Man(a1-3)][GlcNAc(b1-4)]Man(b1-4)GlcNAc(b1-4)GlcNAc
# How it was run: as §1
# [13] = biological target: Neu5Ac(a2-6)Gal(b1-4)GlcNAc(b1-3)Gal(b1-3)GlcNAc
# How it was run: as §1
# [14] = biological target: Neu5Ac(a2-6)Gal(b1-4)GlcNAc(b1-3)Gal(b1-4)GlcNAc
# How it was run: as §1
# [15] = biological target: Neu5Ac(a2-6)Gal(b1-4)GlcNAc(b1-3)Gal(b1-4)GlcNAc(b1-2)Man(a1-3)[Neu5Ac(a2-6)Gal(b1-4)GlcNAc(b1-3)Gal(b1-4)GlcNAc(b1-2)Man(a1-6)]GalNAc
# How it was run: as §1
# [16] = biological target: Neu5Ac(a2-6)Gal(b1-4)GlcNAc(b1-3)Gal(b1-4)GlcNAc(b1-3)Gal(b1-4)GlcNAc
# How it was run: as §1
# [17] = biological target: Neu5Ac(a2-6)Gal(b1-4)GlcNAc(b1-3)Gal(b1-4)GlcNAc(b1-3)Gal(b1-4)GlcNAc(b1-2)Man(a1-3)[Neu5Ac(a2-6)Gal(b1-4)GlcNAc(b1-3)Gal(b1-4)GlcNAc(b1-3)Gal(b1-4)GlcNAc(b1-2)Man(a1-6)]GalNAc
# How it was run: as §1
# [18] = biological target: Neu5Ac(a2-6)Gal(b1-4)GlcNAc(b1-3)Gal(b1-4)GlcNAc(b1-3)GalNAc
# How it was run: as §1
# [19] = biological target: Neu5Ac(a2-6)Gal(b1-4)GlcNAc(b1-3)Gal(b1-4)GlcNAc(b1-3)[Neu5Ac(a2-6)Gal(b1-4)GlcNAc(b1-3)Gal(b1-4)GlcNAc(b1-6)]GalNAc
# How it was run: as §1
# [20] = biological target: Neu5Ac(a2-6)Gal(b1-4)GlcNAc(b1-3)Gal(b1-4)GlcNAc(b1-6)[Gal(b1-3)]GalNAc
# How it was run: as §1
# [21] = biological target: Neu5Ac(a2-6)Gal(b1-4)GlcNAc(b1-3)Gal(b1-4)[Fuc(a1-3)]GlcNAc(b1-3)Gal(b1-4)[Fuc(a1-3)]GlcNAc
# How it was run: as §1
# [22] = biological target: Neu5Ac(a2-6)Gal(b1-4)GlcNAc(b1-3)GalNAc
# How it was run: as §1
# [23] = biological target: Neu5Ac(a2-6)Gal(b1-4)GlcNAc(b1-3)[Neu5Ac(a2-6)Gal(b1-4)GlcNAc(b1-6)]GalNAc
# How it was run: as §1
# [24] = biological target: Neu5Ac(a2-6)Gal(b1-4)GlcNAc(b1-6)GalNAc
# How it was run: as §1
# [25] = biological target: Neu5Ac(a2-6)Gal(b1-4)GlcNAc(b1-6)[Gal(b1-3)GlcNAc(b1-3)]Gal(b1-4)Glc
# How it was run: as §1
# [26] = biological target: Neu5Ac(a2-6)Gal(b1-4)GlcNAc(b1-6)[Gal(b1-3)]GalNAc
# How it was run: as §1
# [27] = biological target: Neu5Ac(a2-6)Gal(b1-4)GlcNAc6S
# How it was run: as §1
# [28] = biological target: Neu5Ac(a2-6)GalNAc
# How it was run: as §1
# [29] = biological target: Neu5Ac(a2-6)GalNAc(b1-4)GlcNAc
# How it was run: as §1
# [30] = biological target: Neu5Ac(a2-6)GalNAc(b1-4)GlcNAc6S
# How it was run: as §1
# [31] = biological target: Neu5Ac(a2-6)GlcNAc(b1-4)GlcNAc
# How it was run: as §1
binder,measurement,setting,value
"Gal-9-hFc (Mus musculus), O08573-2 (protein) MALFSAQSPYINPIIPFTGPIQGGLQEGLQVTLQGTTKSFAQRFVVNFQNSFNGNDIAFHFNPRFEEGGYVVCNTKQNGQWGPEERKMQMPFQKGMPFELCFLVQRSEFKVMVNKKFFVQYQHRVPYHLVDTIAVSGCLKLSFITFQTQNFRPAHQAPMAQTTIHMVHSTPGQMFSTPGIPPVVYPTPAYTIPFYTPIPNGLYPSKSIMISGNVLPDATRFHINLRCGGDIAFHLNPRFNENAVVRNTQINNSWGQEERSLLGRMPFSRGQSFSVWIICEGHCFKVAVNGQHMCEYYHRLKNLQDINTLEVAGDIQLTHVQT",glycan array binding signal (z-score),[1],-0.272
same,glycan array binding signal (z-score),[2],-0.184
same,glycan array binding signal (z-score),[3],-0.448
same,glycan array binding signal (z-score),[4],-0.491
same,glycan array binding signal (z-score),[5],-0.496
same,glycan array binding signal (z-score),[6],-0.192
same,glycan array binding signal (z-score),[7],-0.3
same,glycan array binding signal (z-score),[8],-0.384
same,glycan array binding signal (z-score),[9],-0.152
same,glycan array binding signal (z-score),[10],-0.332
same,glycan array binding signal (z-score),[11],-0.361
same,glycan array binding signal (z-score),[12],-0.34
same,glycan array binding signal (z-score),[13],-0.307
same,glycan array binding signal (z-score),[14],-0.506
same,glycan array binding signal (z-score),[15],-0.17
same,glycan array binding signal (z-score),[16],-0.424
same,glycan array binding signal (z-score),[17],1.19
same,glycan array binding signal (z-score),[18],-0.341
same,glycan array binding signal (z-score),[19],0.099
same,glycan array binding signal (z-score),[20],-0.199
same,glycan array binding signal (z-score),[21],-0.478
same,glycan array binding signal (z-score),[22],-0.362
same,glycan array binding signal (z-score),[23],-0.194
same,glycan array binding signal (z-score),[24],1.04
same,glycan array binding signal (z-score),[25],-0.501
same,glycan array binding signal (z-score),[26],-0.318
same,glycan array binding signal (z-score),[27],-0.452
same,glycan array binding signal (z-score),[28],-0.573
same,glycan array binding signal (z-score),[29],-0.667
same,glycan array binding signal (z-score),[30],-0.128
same,glycan array binding signal (z-score),[31],-0.408
